“And” between values parts separate entries of the source, which are not always exact repeats. Equal values may be shown once. In all, about 2,900 compounds were measured (“NF-kB SEAP reporter activity, fold change vs agonist alone”: median about 0.99, highest 2% from about 2.6 on). This is one part of the list.
Key:
RAW-Dual [1] = assay: NF-kB SEAP reporter activity, fold change vs agonist alone; cytotoxicity flag (confluency mask): not cytotoxic; higher = enhanced NF-kB activity
In short: (§1)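 RAW-Dual macrophages (50,000 cells/well in DMEM, 384-well plates) received 50 nL of library stock by pin tool, then a PRR agonist 1 h later, and were kept at 37 °C, 5% CO2. After 20 hours, supernatant was read for IRF by QuantiLuc luminescence and for NF-κB by QuantiBlue absorbance at 620 nm. Reporter activity is fold change over agonist-alone wells. Cytotoxic wells had IncuCyte confluency below 70% of agonist controls in both mask sets.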

RAW-Dual [2] = assay: NF-kB SEAP reporter activity, fold change vs agonist alone; higher = enhanced NF-kB activity; details: cytotoxicity flag (confluency mask): not cytotoxic
In short: as §1

RAW-Dual [3] = assay: NF-kB SEAP reporter activity, fold change vs agonist alone; cytotoxicity flag (confluency mask): cytotoxic (confluency <70% of control); higher = enhanced NF-kB activity
In short: as §1

[4] = agonist: ODN 1826 (TLR9) 0.5 ug/mL
[5] = agonist: Pam2CSK4 (TLR2/6) 0.1 ug/mL
[6] = agonist: Pam3CSK4 (TLR2/1) 0.1 ug/mL
[7] = library stock concentration (final ~1000-fold dilution): 10 mM, agonist: Imiquimod (TLR7) […]
[8] = library stock concentration (final ~1000-fold dilution): 10 mM, agonist: MPLA (TLR4) […]

COc1ccc(-c2coc3cc(O)ccc3c2=O)cc1 (library stock concentration (final ~1000-fold dilution): 10 mM)
NF-kB SEAP reporter activity (RAW-Dual [1]; agonist: LPS (TLR4) 0.1 ug/mL): 1.25
NF-kB SEAP reporter activity (RAW-Dual [1]; [4]): 1.21
NF-kB SEAP reporter activity (RAW-Dual [1]; [5]): 1.13
NF-kB SEAP reporter activity (RAW-Dual [1]; [6]): 1.22

COc1ccc(-c2coc3cc(O)ccc3c2=O)cc1
NF-kB SEAP reporter activity (RAW-Dual [2]; [7]): 1.17
NF-kB SEAP reporter activity (RAW-Dual [2]; [8]): 1.21

CN1CCN(S(=O)(=O)c2ccc(-c3cnc(N)c(C(=O)Nc4cccnc4)n3)cc2)CC1 (library stock concentration (final ~1000-fold dilution): 10 mM)
NF-kB SEAP reporter activity (RAW-Dual [1]; agonist: LPS (TLR4) 0.1 ug/mL): 4.28
NF-kB SEAP reporter activity (RAW-Dual [1]; [4]): 2.61
NF-kB SEAP reporter activity (RAW-Dual [1]; [5]): 1.11
NF-kB SEAP reporter activity (RAW-Dual [1]; [6]): 2.07

CN1CCN(S(=O)(=O)c2ccc(-c3cnc(N)c(C(=O)Nc4cccnc4)n3)cc2)CC1
NF-kB SEAP reporter activity (RAW-Dual [2]; [7]): 1.5
NF-kB SEAP reporter activity (RAW-Dual [2]; [8]): 2.5

Nc1ccc2ncnc(NCCc3ccc(Oc4ccccc4)cc3)c2c1 (library stock concentration (final ~1000-fold dilution): 10 mM)
NF-kB SEAP reporter activity (RAW-Dual [1]; agonist: LPS (TLR4) 0.1 ug/mL): 1.57 and 1.15
NF-kB SEAP reporter activity (RAW-Dual [1]; [5]): 0.752 and 0.456
NF-kB SEAP reporter activity (RAW-Dual [1]; [6]): 1.02 and 0.73

Nc1ccc2ncnc(NCCc3ccc(Oc4ccccc4)cc3)c2c1
NF-kB SEAP reporter activity (RAW-Dual [2]; [7]): 1.46

O=C(Nc1cc(C(F)(F)F)cc(C(F)(F)F)c1)c1cc(Cl)ccc1O (library stock concentration (final ~1000-fold dilution): 10 mM)
NF-kB SEAP reporter activity (RAW-Dual [3]; agonist: LPS (TLR4) 0.1 ug/mL): 4.53 and 3.94
NF-kB SEAP reporter activity (RAW-Dual [3]; [4]): 1.84 and 1.74
NF-kB SEAP reporter activity (RAW-Dual [3]; [5]): 1.25 and 1.03
NF-kB SEAP reporter activity (RAW-Dual [3]; [6]): 1.99 and 1.13

CC1(C)OC(=O)C=CC2(C)C1CC(=O)C1(C)C2CCC2(C)C(c3ccoc3)OC(=O)C3OC321 (stereo unspecified) (library stock concentration (final ~1000-fold dilution): 10 mM)
NF-kB SEAP reporter activity (RAW-Dual [1]; agonist: LPS (TLR4) 0.1 ug/mL): 1.04
NF-kB SEAP reporter activity (RAW-Dual [1]; [4]): 0.875
NF-kB SEAP reporter activity (RAW-Dual [1]; [5]): 1.02
NF-kB SEAP reporter activity (RAW-Dual [1]; [6]): 1.08

CC1(C)OC(=O)C=CC2(C)C1CC(=O)C1(C)C2CCC2(C)C(c3ccoc3)OC(=O)C3OC321 (stereo unspecified)
NF-kB SEAP reporter activity (RAW-Dual [2]; [7]): 0.98
NF-kB SEAP reporter activity (RAW-Dual [2]; [8]): 1.03

COC1CC2CCC(C)C(O)(O2)C(=O)C(=O)N2CCCCC2C(=O)OC(C(C)CC2CCC(OCCO)C(OC)C2)CC(=O)C(C)C=C(C)C(O)C(OC)C(=O)C(C)CC(C)C=CC=CC=C1C (stereo unspecified) (library stock concentration (final ~1000-fold dilution): 10 mM)
NF-kB SEAP reporter activity (RAW-Dual [1]; agonist: LPS (TLR4) 0.1 ug/mL): 1.83
NF-kB SEAP reporter activity (RAW-Dual [1]; [4]): 1.7
NF-kB SEAP reporter activity (RAW-Dual [1]; [5]): 0.629
NF-kB SEAP reporter activity (RAW-Dual [1]; [6]): 0.915

COC1CC2CCC(C)C(O)(O2)C(=O)C(=O)N2CCCCC2C(=O)OC(C(C)CC2CCC(OCCO)C(OC)C2)CC(=O)C(C)C=C(C)C(O)C(OC)C(=O)C(C)CC(C)C=CC=CC=C1C (stereo unspecified)
NF-kB SEAP reporter activity (RAW-Dual [2]; [7]): 1.77
NF-kB SEAP reporter activity (RAW-Dual [2]; [8]): 1.92

CN(C)C(=O)C(O)C(Cc1ccccc1)NC(=O)c1cc2cc(Cl)ccc2[nH]1 (stereo unspecified)
NF-kB SEAP reporter activity (RAW-Dual [2]; [7]): 0.875
NF-kB SEAP reporter activity (RAW-Dual [2]; [8]): 0.844

CN(C)C(=O)C(O)C(Cc1ccccc1)NC(=O)c1cc2cc(Cl)ccc2[nH]1 (stereo unspecified) (library stock concentration (final ~1000-fold dilution): 10 mM)
NF-kB SEAP reporter activity (RAW-Dual [1]; agonist: LPS (TLR4) 0.1 ug/mL): 1.17
NF-kB SEAP reporter activity (RAW-Dual [1]; [4]): 0.892
NF-kB SEAP reporter activity (RAW-Dual [1]; [5]): 1.05
NF-kB SEAP reporter activity (RAW-Dual [1]; [6]): 0.988

C=C1CCCC2(C)C=C3OC(=O)C(C)=C3CC12 (stereo unspecified) (library stock concentration (final ~1000-fold dilution): 10 mM)
NF-kB SEAP reporter activity (RAW-Dual [1]; agonist: LPS (TLR4) 0.1 ug/mL): 1
NF-kB SEAP reporter activity (RAW-Dual [1]; [4]): 1.06
NF-kB SEAP reporter activity (RAW-Dual [1]; [5]): 1.52
NF-kB SEAP reporter activity (RAW-Dual [1]; [6]): 1.49

C=C1CCCC2(C)C=C3OC(=O)C(C)=C3CC12 (stereo unspecified)
NF-kB SEAP reporter activity (RAW-Dual [2]; [7]): 0.726
NF-kB SEAP reporter activity (RAW-Dual [2]; [8]): 1.14

O=C(O)c1cc(C(F)(F)F)ccc1N1CCC(OCc2ccccn2)C1 (stereo unspecified)
NF-kB SEAP reporter activity (RAW-Dual [2]; [7]): 1.22
NF-kB SEAP reporter activity (RAW-Dual [2]; [8]): 1.43

O=C(O)c1cc(C(F)(F)F)ccc1N1CCC(OCc2ccccn2)C1 (stereo unspecified) (library stock concentration (final ~1000-fold dilution): 10 mM)
NF-kB SEAP reporter activity (RAW-Dual [1]; agonist: LPS (TLR4) 0.1 ug/mL): 1.02
NF-kB SEAP reporter activity (RAW-Dual [1]; [4]): 2.21
NF-kB SEAP reporter activity (RAW-Dual [1]; [5]): 1.22
NF-kB SEAP reporter activity (RAW-Dual [1]; [6]): 2.09

CCN(CC)C(=O)N1CCN(C)CC1.O=C(O)CC(O)(CC(=O)O)C(=O)O (library stock concentration (final ~1000-fold dilution): 10 mM)
NF-kB SEAP reporter activity (RAW-Dual [1]; agonist: LPS (TLR4) 0.1 ug/mL): 1.09
NF-kB SEAP reporter activity (RAW-Dual [1]; [4]): 1
NF-kB SEAP reporter activity (RAW-Dual [1]; [5]): 0.878
NF-kB SEAP reporter activity (RAW-Dual [1]; [6]): 0.981

CCN(CC)C(=O)N1CCN(C)CC1.O=C(O)CC(O)(CC(=O)O)C(=O)O
NF-kB SEAP reporter activity (RAW-Dual [2]; [7]): 0.932
NF-kB SEAP reporter activity (RAW-Dual [2]; [8]): 0.984

O=C1/C(=C/c2cccs2)CC/C1=C\c1cccs1
NF-kB SEAP reporter activity (RAW-Dual [2]; library stock concentration (final ~1000-fold dilution): 2 mM, agonist: Imiquimod (TLR7) […]): 0.91
NF-kB SEAP reporter activity (RAW-Dual [2]; library stock concentration (final ~1000-fold dilution): 2 mM, agonist: MPLA (TLR4) […]): 1.09

O=C1/C(=C/c2cccs2)CC/C1=C\c1cccs1 (library stock concentration (final ~1000-fold dilution): 2 mM)
NF-kB SEAP reporter activity (RAW-Dual [1]; agonist: LPS (TLR4) 0.1 ug/mL): 1.19
NF-kB SEAP reporter activity (RAW-Dual [1]; [4]): 1.01
NF-kB SEAP reporter activity (RAW-Dual [1]; [5]): 1.01
NF-kB SEAP reporter activity (RAW-Dual [1]; [6]): 1.18

CCCc1nc(C(C)(C)O)c(C(=O)OCc2oc(=O)oc2C)n1Cc1ccc(-c2ccccc2-c2nn[nH]n2)cc1 (library stock concentration (final ~1000-fold dilution): 10 mM)
NF-kB SEAP reporter activity (RAW-Dual [1]; agonist: LPS (TLR4) 0.1 ug/mL): 1.01
NF-kB SEAP reporter activity (RAW-Dual [1]; [4]): 0.995
NF-kB SEAP reporter activity (RAW-Dual [1]; [5]): 1.06
NF-kB SEAP reporter activity (RAW-Dual [1]; [6]): 1.03

CCCc1nc(C(C)(C)O)c(C(=O)OCc2oc(=O)oc2C)n1Cc1ccc(-c2ccccc2-c2nn[nH]n2)cc1
NF-kB SEAP reporter activity (RAW-Dual [2]; [7]): 0.882
NF-kB SEAP reporter activity (RAW-Dual [2]; [8]): 1.04

C=C1C(CO)C(O)CC1n1cnc2c(=O)nc(N)[nH]c21 (stereo unspecified)
NF-kB SEAP reporter activity (RAW-Dual [2]; [8]): 1.07

C=C1C(CO)C(O)CC1n1cnc2c(=O)nc(N)[nH]c21 (stereo unspecified) (library stock concentration (final ~1000-fold dilution): 10 mM)
NF-kB SEAP reporter activity (RAW-Dual [1]; agonist: LPS (TLR4) 0.1 ug/mL): 1.32
NF-kB SEAP reporter activity (RAW-Dual [1]; [4]): 0.996
NF-kB SEAP reporter activity (RAW-Dual [1]; [5]): 1.37
NF-kB SEAP reporter activity (RAW-Dual [1]; [6]): 0.846

CC1(C(=O)Nc2ccc(F)nc2)CCCN1c1nc(Nc2cc(C3CC3)[nH]n2)c2cccn2n1 (stereo unspecified) (library stock concentration (final ~1000-fold dilution): 10 mM)
NF-kB SEAP reporter activity (RAW-Dual [1]; agonist: LPS (TLR4) 0.1 ug/mL): 0.844
NF-kB SEAP reporter activity (RAW-Dual [1]; [4]): 1.04
NF-kB SEAP reporter activity (RAW-Dual [1]; [5]): 0.468
NF-kB SEAP reporter activity (RAW-Dual [1]; [6]): 0.664

CC1(C(=O)Nc2ccc(F)nc2)CCCN1c1nc(Nc2cc(C3CC3)[nH]n2)c2cccn2n1 (stereo unspecified)
NF-kB SEAP reporter activity (RAW-Dual [2]; [7]): 1.27
NF-kB SEAP reporter activity (RAW-Dual [2]; [8]): 1.19

COS(=O)(=O)[O-].COc1cc(N)cn[n+]1-c1ccccc1
NF-kB SEAP reporter activity (RAW-Dual [2]; [7]): 0.917
NF-kB SEAP reporter activity (RAW-Dual [2]; [8]): 1.08

— the supplement of paper PMC10037445
